According to a collection of fitness landscapes (doi:10.1016/j.celrep.2020.107928):
Over roughly 81,000 sequences, “one-hybrid fitness for binding parS DNA” has its median near -0.17; the highest 2% begin near 0.51. The list shows a part of the results.

B1: Caulobacter ParB omega fusion; a variant is named by its letters at X, in order, B8GW30 (parent)
chain: MESVVVGEPGMSEGRRGLGRGLSALLGEVDAAPAQAPGEQLGGSREAPIEILQRNPDQPRRTFREEDLEDLSNSIREKGVLQPILVRPSPDTAGEYQIVAGERAWRAAQRAGLKTVPIMVRELDDLAVLEIGIIENVQRADLNVLEEALSYKVLMEKFERTQENIAQTIGKSXSHVANXMRLLXLPDEVQSYLVSGELTAXHARAIAAAADPVALAKQIIEGGLSVRETEALARKAPNLSAGKSKGGRPPRVKDTDTQALESDLSSVLGLDVSIDHRGSTGTLTITYATLEQLDDLCNRLTRGI

Variants of: B1
Test: one-hybrid fitness for binding parS DNA (scaled: cognate 1, non-cognate 0); higher = stronger binding
Conditions: with parS DNA site
Method in brief: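 Bacterial one-hybrid selection in E. coli USO rpoZ- hisB- pyrF- with a HIS3 reporter carrying the site 19 bp from the promoter, screening Caulobacter ParB libraries with four specificity codons randomised (NNS). Cells grew 48 hours at 37°C on M9-minus-histidine plus 0.1 mM IPTG and 5 mM 3-AT. Plasmids before and after selection were Illumina-sequenced, three replicate libraries pooled, and variants under 10 reads dropped. Fitness is the log change in variant-to-wild-type read ratio, rescaled to cognate 1, non-cognate 0.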

Variant | one-hybrid fitness for binding parS DNA
YKHC | ≤ 0.2
LTLT | ≤ 0.2
TAHS | ≤ 0.2
NCEV | ≤ 0.2
CLNS | ≤ 0.2
MQNR | ≤ 0.2
THVV | ≤ 0.2
AFSC | ≤ 0.2
TLYL | ≤ 0.2
IAPV | ≤ 0.2
CKTR | ≤ 0.2
DCRR | ≤ 0.2
HADR | ≤ 0.2
NGSR | ≤ 0.2
RWSP | ≤ 0.2
AINM | ≤ 0.2
SSKN | ≤ 0.2
IGMS | ≤ 0.2
YCEC | ≤ 0.2
WASP | ≤ 0.2
VRSQ | ≤ 0.2
AIRR | ≤ 0.2
MILI | ≤ 0.2
TDWP | ≤ 0.2
YPDG | ≤ 0.2

Variant | one-hybrid fitness for binding parS DNA
EDIS | ≤ 0.2
RQCC | 0.874
VFKW | ≤ 0.2
APGE | ≤ 0.2
RQGC | 0.916
MVAG | ≤ 0.2
MSDN | ≤ 0.2
KQKW | ≤ 0.2
TWYG | ≤ 0.2
NWCT | ≤ 0.2
QCIA | ≤ 0.2
TKRT | ≤ 0.2
DHMR | ≤ 0.2
HRKG | 0.357
QMSV | ≤ 0.2
GMMC | ≤ 0.2
TCPP | ≤ 0.2
QLEA | ≤ 0.2
SANN | ≤ 0.2
CDLT | ≤ 0.2
KKTN | ≤ 0.2
ASVF | ≤ 0.2
DYLW | ≤ 0.2
LKFM | ≤ 0.2
RFAP | ≤ 0.2

Variant | one-hybrid fitness for binding parS DNA
RIGW | 0.22
ELLG | ≤ 0.2
QLPA | ≤ 0.2
RLHC | 0.973
PVVG | ≤ 0.2
RTNV | ≤ 0.2
PWDR | ≤ 0.2
HLCV | ≤ 0.2
TACA | ≤ 0.2
QSWC | ≤ 0.2
NCEY | ≤ 0.2
MAKY | ≤ 0.2
RTRI | ≤ 0.2
EMKV | ≤ 0.2
SKKF | ≤ 0.2
YLMS | ≤ 0.2
MAFT | ≤ 0.2
RCIE | 0.206
QAND | ≤ 0.2
PNKT | ≤ 0.2
PVSM | ≤ 0.2
ITPL | ≤ 0.2
CLAM | ≤ 0.2
VNPG | ≤ 0.2
GIRT | ≤ 0.2

Variant | one-hybrid fitness for binding parS DNA
KGDR | ≤ 0.2
KQAG | ≤ 0.2
RRPG | 0.891
QIFG | ≤ 0.2
YIFR | ≤ 0.2
YMPS | ≤ 0.2
SGYA | 0.28
MWAC | ≤ 0.2
HEQG | ≤ 0.2
ERPT | ≤ 0.2
NYDV | ≤ 0.2
IHCR | ≤ 0.2
WSVS | ≤ 0.2
WHAS | ≤ 0.2
ADHW | ≤ 0.2
RNSG | 0.921
PPFE | ≤ 0.2
YLCL | ≤ 0.2
FNPH | ≤ 0.2
DWVY | ≤ 0.2
AHHM | ≤ 0.2
HSCP | ≤ 0.2
GRLN | ≤ 0.2
IIPT | ≤ 0.2
EYST | ≤ 0.2

Variant | one-hybrid fitness for binding parS DNA
EQQG | ≤ 0.2
VKDE | ≤ 0.2
ARVS | ≤ 0.2
QYHI | ≤ 0.2
KRQS | ≤ 0.2
TCTH | ≤ 0.2
LALI | ≤ 0.2
RQGW | 0.21
QMLM | ≤ 0.2
GTIL | ≤ 0.2
RRTA | 0.656
WKQS | ≤ 0.2
QVFV | ≤ 0.2
KYLS | ≤ 0.2
KKWY | ≤ 0.2
AETM | ≤ 0.2
RACY | 0.435
TYKS | ≤ 0.2
TYDN | ≤ 0.2
ERAM | ≤ 0.2
LSEL | ≤ 0.2
KSQR | ≤ 0.2
RDSS | ≤ 0.2
YKCR | ≤ 0.2
TQGQ | ≤ 0.2

Variant | one-hybrid fitness for binding parS DNA
ENKL | ≤ 0.2
KTCL | ≤ 0.2
AQEL | ≤ 0.2
YTVE | ≤ 0.2
SYLN | ≤ 0.2
LVLK | ≤ 0.2
TPPQ | ≤ 0.2
TYFR | ≤ 0.2
TNNS | ≤ 0.2
KPNS | ≤ 0.2
DIMR | ≤ 0.2
TQDR | ≤ 0.2
RHLH | 0.229
ESNL | ≤ 0.2
LAQR | ≤ 0.2
RWQN | 0.264
PVMY | ≤ 0.2
MGVV | ≤ 0.2
SSYP | ≤ 0.2
IRWP | ≤ 0.2
RGQV | ≤ 0.2
SCRS | ≤ 0.2
TNHF | ≤ 0.2
THFL | ≤ 0.2
HLFS | ≤ 0.2

Variant | one-hybrid fitness for binding parS DNA
RHQK | ≤ 0.2
CPER | ≤ 0.2
YWRF | ≤ 0.2
EMGY | ≤ 0.2
ATYC | ≤ 0.2
MPYG | ≤ 0.2
MKSG | ≤ 0.2
NLTN | ≤ 0.2
TGML | ≤ 0.2
DRGE | ≤ 0.2
ANMR | ≤ 0.2
RNAQ | ≤ 0.2
HQHR | ≤ 0.2
QKHM | ≤ 0.2
EGMT | ≤ 0.2
WIQG | ≤ 0.2
AETR | ≤ 0.2
RIHK | ≤ 0.2
DTKG | ≤ 0.2
LVSK | ≤ 0.2
RSPS | 0.541
TMAV | ≤ 0.2
RANC | 0.98
ASVI | ≤ 0.2
MTHL | ≤ 0.2

Variant | one-hybrid fitness for binding parS DNA
SYLR | ≤ 0.2
IPQH | ≤ 0.2
VKYS | ≤ 0.2
WMSM | ≤ 0.2
LKRG | ≤ 0.2
QSRH | ≤ 0.2
NFDV | ≤ 0.2
HIDG | ≤ 0.2
KASC | ≤ 0.2
DAYC | ≤ 0.2
HAVC | ≤ 0.2
EGAG | ≤ 0.2
FPQN | ≤ 0.2
QAGF | ≤ 0.2
TVYE | ≤ 0.2
MNNC | ≤ 0.2
LFHC | ≤ 0.2
ASAW | ≤ 0.2
WAEG | ≤ 0.2
GQLR | ≤ 0.2
